Screen size: about 350,000 compounds; about 31,000 (8.9%) were called active. The shares of active, inactive and inconclusive entries below differ from those in the screen. Calls follow the shape of the dose curve; as a rule, active = well fitted inhibition curve with a large enough effect; inconclusive = small, poorly fitted or top-dose-only effect; inactive = no such curve, though single readings can be large or run the other way. A potency beside an inconclusive call is a rough fit, not a confirmed value.
Molecular target: Histone-lysine N-methyltransferase EHMT2 (Homo sapiens) (UniProt Q96KQ7)
Experiment: qHTS Assay for Inhibitors of Histone Lysine Methyltransferase G9a; also: nearly all actives have a fitted effect of over 75% in size
Details: G9a H3K9 monomethylation, AlphaScreen, 2 h; activity, negative = inhibition: at 59 µM (top of the series) unless noted
In short: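 Signal arises when biotinylated H3K9 peptide, once monomethylated, bridges streptavidin donor and antibody-captured acceptor beads. Enzyme at 20 nM was preincubated 15 min with test compounds; peptide 500 nM and SAM 20 uM then reacted for 2 h.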
% is scaled to controls: 0 for no effect and ±100 for the full control effect; potency is read from the fitted curve at half-maximal effect; tags tell the direction and shape of the fitted curve.

Sequence of UniProt Q96KQ7 (Q96KQ7 whole entry, looked up): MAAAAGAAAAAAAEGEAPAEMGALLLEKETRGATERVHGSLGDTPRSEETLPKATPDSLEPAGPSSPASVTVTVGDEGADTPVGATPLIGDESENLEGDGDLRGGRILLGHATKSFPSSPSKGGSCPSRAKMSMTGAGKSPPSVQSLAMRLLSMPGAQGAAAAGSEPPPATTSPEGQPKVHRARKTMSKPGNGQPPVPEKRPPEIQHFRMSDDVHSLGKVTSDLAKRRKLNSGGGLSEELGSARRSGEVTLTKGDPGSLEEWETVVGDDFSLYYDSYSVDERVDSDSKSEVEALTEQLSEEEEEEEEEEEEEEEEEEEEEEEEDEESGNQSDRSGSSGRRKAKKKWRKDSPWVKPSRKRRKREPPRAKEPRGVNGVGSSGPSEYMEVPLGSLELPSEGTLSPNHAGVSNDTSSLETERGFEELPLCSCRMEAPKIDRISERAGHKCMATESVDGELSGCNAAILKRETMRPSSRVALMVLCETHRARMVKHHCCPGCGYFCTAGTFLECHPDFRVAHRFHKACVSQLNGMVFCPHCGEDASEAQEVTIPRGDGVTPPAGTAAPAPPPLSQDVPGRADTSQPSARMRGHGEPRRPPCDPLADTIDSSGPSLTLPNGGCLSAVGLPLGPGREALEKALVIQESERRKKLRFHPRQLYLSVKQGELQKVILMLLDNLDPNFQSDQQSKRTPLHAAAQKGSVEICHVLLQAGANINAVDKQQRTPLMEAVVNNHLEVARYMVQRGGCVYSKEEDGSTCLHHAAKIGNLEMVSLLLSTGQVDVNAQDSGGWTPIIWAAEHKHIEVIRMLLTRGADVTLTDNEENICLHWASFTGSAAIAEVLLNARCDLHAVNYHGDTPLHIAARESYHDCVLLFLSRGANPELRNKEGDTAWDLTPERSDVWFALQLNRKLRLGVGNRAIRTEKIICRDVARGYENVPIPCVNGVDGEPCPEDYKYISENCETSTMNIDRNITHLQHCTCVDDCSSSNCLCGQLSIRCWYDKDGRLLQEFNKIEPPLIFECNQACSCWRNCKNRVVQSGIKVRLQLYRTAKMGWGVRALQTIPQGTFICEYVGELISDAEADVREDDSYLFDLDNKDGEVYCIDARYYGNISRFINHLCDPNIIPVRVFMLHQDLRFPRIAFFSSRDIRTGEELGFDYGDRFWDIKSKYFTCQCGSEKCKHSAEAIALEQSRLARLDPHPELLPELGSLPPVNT

Compound	Potency	activity, negative = inhibition
O=C(CCN1CCOCC1)Nc1cc(C(=O)Nc2ccccc2F)ccc1N1CC2CC(C1)c1cccc(=O)n1C2 (configuration not stated)	inconclusive: 79.4 µM [inhibitor, single point]	–
FC(F)(F)c1cnc(Sc2nc3nccc(-c4ccc(Cl)cc4)n3n2)c(Cl)c1	inconclusive: 79.4 µM [inhibitor, single point]	–
COc1cc(NC(=S)NC(C)(C)C)c(OC)cc1Cl	–	inconclusive: -90.4% [inhibitor]
O=C(CSc1ccc(-c2cccc([N+](=O)[O-])c2)nn1)N1CCCCC1	inconclusive: 35.5 µM [inhibitor, full curve]	–
Cc1ccc(C(=O)OCC(=O)NC(=O)c2ccccc2)o1	inconclusive: 50.1 µM [inhibitor, partial curve]	–
CCN(CC)CCCN1C(=O)C(O)=C(C(=O)c2ccco2)C1c1ccc(OC(C)C)cc1 (configuration not stated)	inconclusive: 89.1 µM [inhibitor, single point]	–
Cc1cccc(C(=O)OCC(=O)N(CC(C)C)c2c(N)n(Cc3ccccc3)c(=O)[nH]c2=O)c1C	inconclusive: 70.8 µM [inhibitor, single point]	–
CC1CC(=O)N(CC(=O)Nc2ccc(F)cc2F)c2ccccc2S1 (configuration not stated)	–	inactive: -5.45%
O=C(NCCc1ccccc1)C1CCC(=O)N1C1CCCC1 (configuration not stated)	–	inactive: -9.84% [at 102 µM]
COc1ccc(Nc2nc(-c3sc(N)nc3C)cs2)cc1	inconclusive: 2.51 µM [inhibitor, partial curve, poor fit]	–
COC(=O)c1ccc(NC(=O)C2CCCN2S(=O)(=O)c2ccc(C)cc2)cc1 (configuration not stated)	–	inactive: 13.2% [at 102 µM]
CCOC(=O)c1c(CC(C)C)csc1/N=C/C1C(=O)CCCC1=O	active: 50.1 µM	–
COc1ccc(NC(=O)Nc2cccc(-c3cn4cccnc4n3)c2)cc1	–	inactive: 0.187%
O=C(Nc1nnc(C2=COCCO2)o1)c1ccc([N+](=O)[O-])cc1	inconclusive: 2.82 µM [inhibitor, full curve, poor fit]	–
COc1ccc2c(c1)C(NC(C)=O)C(=O)N2C (configuration not stated)	inconclusive: 50.1 µM [inhibitor, partial curve, poor fit]	–
COc1ccc(OC)c(S(=O)(=O)N2CCC3(CC2)OCCN3S(=O)(=O)c2ccccc2)c1	inconclusive: 50.1 µM [inhibitor, partial curve, poor fit]	–
CC(C)CC1Nc2ccc(C(=O)NCc3ccc4c(c3)OCO4)cc2NC1=O (configuration not stated)	inconclusive: 79.4 µM [inhibitor, single point]	–
CN(C)CCCNCC(=O)Nc1ccccc1N1CCOCC1	inconclusive: 2.51 µM [inhibitor, partial curve, poor fit]	–
CCOc1ccc(NC(=O)Nc2cc(-c3ccccc3)sc2C(=O)OC)cc1	–	inactive: -0.523%
O=C(O)CCc1ccc(-c2cccs2)n1Cc1ccco1	–	inconclusive: -76% [inhibitor]
C/C=C/C(=O)N1CC2(CC(c3cccc(NC(=O)CC(c4ccccc4)c4ccccc4)c3)=NO2)C[C@H]1C(N)=O (some centres not stated)	–	inactive: -22.8%
N#Cc1ccc(C(=O)OCC(=O)N2CCCC2)cc1	active: 44.7 µM	–
Cc1ccc(OCC(O)C(C)NC(C)C)c2c1CCC2 (configuration not stated)	–	inactive: 34.7% [at 12.7 µM]
Cc1cc(N2CCN(C)CC2)ccc1NC(=O)c1c2c(nc3ccccc13)CCN(Cc1ccccc1)C2	active: 35.5 µM	–

Compound	Potency	activity, negative = inhibition
CCOc1ccc(NC(=O)Cn2c(=O)n(Cc3ccc(C(=O)NCc4ccc(C)cc4)cc3)c(=O)c3ccccc32)cc1	–	inactive: -28.7%
CCCCN1C(=O)C2Cc3c([nH]c4ccccc34)CN2C1=S (configuration not stated)	inconclusive: 56.2 µM [inhibitor, partial curve, poor fit]	–
Cc1cc(C)nc(NC(=O)c2ccc(Cl)cc2)n1	inconclusive: 2.51 µM [inhibitor, partial curve, poor fit]	–
Cc1ccc(-n2c(SCC(=O)OC(C)C)nnc2-c2cnccn2)cc1	–	inactive: 18.1% [at 102 µM]
CCc1nnc(NC(=O)CSc2nccn2-c2cccc(C)c2C)s1	inconclusive: 50.1 µM [inhibitor, partial curve, poor fit]	–
COc1ccc(NS(=O)(=O)c2cccc(C(=O)NCC(c3ccc(OC)cc3)N3CCCC3)c2)cc1 (configuration not stated)	inconclusive: 44.7 µM [inhibitor, partial curve, poor fit]	–
CCCCN(CCCNC(=O)CN1C(=O)COc2ccccc21)c1ccccc1	–	inconclusive: -82.6% [inhibitor]
CC(=O)n1c(=O)c2ccccc2c(=O)n1-c1ccccc1	–	inactive: -44.9% [at 102 µM]
CCCCCC(=O)Nc1cccc(S(=O)(=O)NC2=NCCCCC2)c1	–	inactive: -10.6% [at 12.7 µM]
CN(C)c1ccc(NC(=O)CN2CCN(CC(=O)Nc3ccc(Br)cc3)CC2)cc1	active: 8.91 µM	–
Fc1ccc(/C=N/n2c(COc3ccccc3)n[nH]c2=S)cc1	active: 1.58 µM	–
CCNC(=S)NCc1ccc(OC)c(OC)c1	–	inactive: 29.3% [at 12.7 µM]
Cc1ccc(-c2nc3ncccc3o2)cc1NC(=O)c1ccccc1Br	–	inactive: -1.48%
CSc1nc(-c2ccc(Cl)cc2)c(C#N)c(=O)n1C	–	inactive: -0.962% [at 102 µM]
c1ccc(-n2nnnc2-c2cccnc2)cc1	–	inactive: -12.2% [at 102 µM]
CCOC(=O)C1=C(CN2CCSCC2)NC(=O)NC1c1cccc([N+](=O)[O-])c1 (configuration not stated)	inconclusive: 79.4 µM [inhibitor, single point]	–
COc1cccc(OCCOCCOc2ccc(C)cc2[N+](=O)[O-])c1	–	inactive: 15.2%
NC(=O)c1ccccc1NC(=O)c1ccc2ccccc2c1	–	inactive: -10.4% [at 102 µM]
CCCCCCSC1=C(C#N)C(c2ccc(C)o2)CC(=O)N1 (configuration not stated)	inconclusive: 3.16 µM [inhibitor, partial curve, poor fit]	–
O=C(Nc1nnc(C2CC2)s1)c1ccccn1	inconclusive: 1.41 µM [inhibitor, single point]	–
CC(C)(C)c1ccc(-c2nc(S(=O)(=O)c3ccccc3)c(N3CCOCC3)o2)cc1	inconclusive: 35.5 µM [inhibitor, partial curve, poor fit]	–
CC1CCCN(C(=O)CSc2ncccn2)C1 (configuration not stated)	inconclusive: 79.4 µM [inhibitor, single point]	–
O=C(c1csnn1)N1CCC[C@@]2(CCN(Cc3cc(C(F)(F)F)cc(C(F)(F)F)c3)C2)C1	–	inactive: -4.2% [at 12.7 µM]
